Reference: PubChem BioAssay AID1963576 (National Center for Advancing Translational Sciences (NCATS), 2024)
The whole screen tested about 46,000 compounds, of which about 60 (0.1%) were called active. Not shown: some 3% with an inconclusive outcome. Calls come from the whole dose curve; as a rule, active = well fitted inhibition curve with a large enough effect; inconclusive = small, poorly fitted or top-dose-only effect; inactive = no such curve, though single readings can be large or run the other way. Some of the results follow.

test: Primary qHTS assay for Inhibitors of ovarian cancer metastasis using an organotypic tumor microenvironment (TME) model.; note: nearly all actives have a fitted effect of over 65% in size;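 for activity change, negative = inhibition: plate controls were DMSO wells for no effect and tomatine positive control wells for full effect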; details: SKOV3ip1-GFP adhesion/invasion on 3D omental model, fluorescence; series mostly up to 45.8 µM; activity change, negative = inhibition: at the top concentration
Summary of the method: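 qHTS, 4-pt dose (0.36-46 umol/L); SKOV3ip1-GFP, 1,200 cells/well, no FBS; primary omental fibroblast/mesothelial co-culture 48 h pre-grown; 2 h RT + 16 h 37 C; PBS wash, 4% PFA; GFP count 488/509 nm.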

Row | SMILES | outcome | activity change, negative = inhibition
1 | COc1ccccc1NC(=O)CSc1nnc(N)s1 | inactive | –
2 | CCOC(=O)c1ccc(N2C(=O)c3n[nH]c(-c4cccs4)c3C2c2ccc(OCC)cc2)cc1 (configuration not stated) | – | inactive: -9.85%
3 | COc1ccc(CCNc2oc(/C=C/c3cc(OC)c(OC)c(OC)c3)nc2C#N)cc1OC | – | inactive: 3.01%
4 | COc1ccc(OC)c(CCNC(=O)CS(=O)(=O)Cc2nc(-c3cccc(Cl)c3)oc2C)c1 | inactive | –
5 | CCN1C(=O)c2ccccc2S(=O)c2ccc(C(=O)NCc3ccc(OC)cc3)cc21 (configuration not stated) | – | inactive: -6.69%
6 | O=C(CSc1nc2cc(C(=O)NC3CCCC3)ccc2c(=O)n1CC1CCCO1)c1cccc(Cl)c1 (configuration not stated) | inactive | –
7 | Cc1ccc(C)c2sc(NC(=O)c3ccc(S(=O)(=O)N4CCC(C)CC4)cc3)nc12 | – | inactive: -8.48%
8 | CCOc1ccc(NC(=O)CC2C(=O)N(c3ccc(F)cc3)C(=O)N2Cc2ccc(OC)c(OC)c2)cc1 (configuration not stated) | – | inactive: 3.13%
9 | COc1ccc(OC)c(NS(=O)(=O)c2cc3c(cc2Cl)N(C(C)=O)CCO3)c1 | inactive | –
10 | Cc1ccc(-c2cc(C(=O)Nc3cc([N+](=O)[O-])ccc3C)no2)cc1F | inactive | –
11 | COC(=O)c1c(NC(=O)C(C)Oc2ccc(Cl)c(C)c2)sc(C)c1C (configuration not stated) | – | inactive: 5.36%
12 | Cc1ccc(Sc2c(C)nn(-c3ccccc3)c2OC(=O)C(C)(C)C)cc1 | – | inactive: -2.82%
13 | Cc1c(Cl)ccc2sc(N3CCN(C(=O)C(C)C)CC3)nc12 | – | inactive: -1.41%
14 | CCOC(=O)c1c(NC(=O)c2cc(C(C)C)on2)sc(C(C)=O)c1C | inactive | –
15 | CCOC(=O)c1c(C)oc2nc(C)nc(Nc3ccc(C)c(Cl)c3)c12 | – | inactive: -8.71%
16 | COc1ccc(CC(=O)Nc2ccc3nc(Nc4ccc(OC)cc4)cc(C)c3c2)cc1 | inactive | –
17 | CCc1ccc(CNC(=O)c2cc(=O)[nH]c3ccc(S(=O)(=O)N4CCCCC4)cc23)cc1 | – | inactive: -0.502%
18 | COc1cc(OC)c(Nc2nc3ccccc3c3nncn23)cc1Cl | inactive | –
19 | O=C(NCCc1ccc(Cl)cc1)c1cnc2sc(N3CCOCC3)nn2c1=O | – | inactive: -8.73%
20 | Cc1oc(-c2cccc(Cl)c2)nc1CSc1nncn2c1cc1occc12 | – | inactive: 6.4%
21 | O=C(NCc1ccccc1Cl)c1ccc2c(c1)NC(=O)C(CS(=O)(=O)Cc1ccc(F)cc1Cl)N2 (configuration not stated) | – | inactive: 2.51%
22 | COc1ccc(/C=C\c2onc(C)c2S(=O)(=O)N2CCC(C(=O)Nc3ccc(F)cc3F)CC2)cc1 | inactive | –
23 | CCOc1ccccc1NC(=O)NCc1ccc2c(c1)CCN2C(=O)c1ccccc1 | – | inactive: -9.37%
24 | Cc1ccc(-c2nc3nc(C)cc(N4CCN(c5cccc(C)c5C)CC4)n3n2)cc1 | inactive | –

Row | SMILES | outcome | activity change, negative = inhibition
25 | CN(C)c1ccc(CN(Cc2ccco2)C(=O)c2ccc(C(C)(C)C)cc2)cc1 | – | inactive: -19.4%
26 | Cc1cccc(C)c1Nc1c(-c2ccccc2F)nc2cccc(C)n12 | – | inactive: 1.24%
27 | COc1ccc(OCC(=O)Nc2nnc(S(=O)(=O)N3CCc4ccccc43)s2)cc1 | – | inactive: 2.52%
28 | Cc1cc(C)c(S(=O)(=O)Nc2ccc(-c3ccc(N4CCC(C)CC4)nn3)cc2)cc1C | – | inactive: 26.6%
29 | Cc1ccccc1C(=O)Nc1cc2c(cc1N1CCOCC1)n(C)c(=O)n2C | – | inactive: 4.14%
30 | CCOC(=O)c1ccccc1NC(=O)C1CCN(c2ncnc3c2nc2n3CCCCC2)CC1 | inactive | –
31 | CCCCN(CC)CCNC(=O)c1c(C)oc2ncnc(N3CCOCC3)c12 | – | inactive: 9.94%
32 | COc1ccc2[nH]c(=O)c(CN(C(=O)c3cccc(Cl)c3)c3ccccc3C)cc2c1 | – | inactive: -8.16%
33 | CCOc1ccc(C(=O)c2cn(CC(=O)Nc3ccc(OC)cc3)c3cc4c(cc3c2=O)OCCO4)cc1 | inactive | –
34 | Cc1ccc2oc3c(c(=O)c2c1)C(c1ccc(O)cc1)N(Cc1ccc2c(c1)OCO2)C3=O (configuration not stated) | – | inactive: -4.87%
35 | CN1CCN(C2(CNC(=O)c3ccc(C(C)(C)C)cc3)CCCCC2)CC1 | inactive | –
36 | C#CCn1c(C2CC(=O)N(c3ccc(OC)cc3)C2)nc2ccccc21 (configuration not stated) | – | inactive: 13.5%
37 | CC1CN(c2ccc(Cl)cc2)c2nc3c(c(=O)n(CC(=O)O)c(=O)n3C)n2C1 (configuration not stated) | inactive | –
38 | Cc1ccc(CNC(=O)c2sc3nc[nH]c(=O)c3c2C)cc1 | – | inactive: -9.1%
39 | COc1ccc2occ(CC(=O)Nc3ccc(S(=O)(=O)Nc4nccc(C)n4)cc3)c2c1 | – | inactive: 6.82%
40 | COc1cccc(-c2cc(C(=O)Nc3c(C)nn(Cc4ccccc4Cl)c3C)no2)c1 | – | inactive: -4.27%
41 | CC(C)CCn1c(=O)c2cccnc2n(CC(=O)Nc2ccc(F)cc2)c1=O | – | inactive: -1.39%
42 | Cc1cc2nnc(SCc3ccc(F)cc3)n2c2ccccc12 | inactive | –
43 | COc1ccccc1-c1nc(SCC(=O)c2ccccc2)n[nH]1 | – | inactive: -3.1%
44 | COc1ccc(-c2[nH]c(-c3cccc(OC)c3)nc2SCC(=O)Nc2ccc3c(c2)OCO3)cc1 | – | inactive: -11.7%
45 | COc1cccc(CNC(=O)Cn2c(=O)ccc3cc(S(=O)(=O)N4CCC(C)CC4)ccc32)c1 | – | inactive: -7.05%
46 | COc1cccc(C(=O)NCc2ccc3c(c2)CCN3C(=O)c2ccncc2)c1 | – | inactive: 26.6%
47 | COc1ccc(-n2c3c(c(=O)[nH]c2=O)C(NC(=O)c2ccccc2Cl)(C(F)(F)F)C(=O)N3)cc1 (configuration not stated) | – | inactive: 13.8%
